# Experimental data published in the supplement of paper PMC5499739.
# In all, about 16,000 sequences were measured (“Z-score”: median about -0.37, highest 2% from about 3.1 on). This is one part of the list.
# System: RBM10 RRM1-ZnF-RRM2 (GST-tagged construct)
# Test: RNAcompete 7-mer binding Z-score; higher = stronger binding preference
# Protocol: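 RNAcompete: 20 pmol GST-tagged RBM10 RNA-binding constructs were incubated with a designed RNA pool of about 241,000 sequences up to 41 nt (1.5 nmol) on glutathione beads for 30 min at 4 °C and washed. Bound RNAs were identified by microarray hybridisation. Each RNA 7-mer is scored by a one-sided Z-score of its enrichment, computed over probes that contain the 7-mer within longer pool sequences.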
row,Sequence,RNAcompete 7-mer binding Z-score
1,UAAAGAG,0.312
2,UAUCGCG,-0.358
3,UUUGCGG,-0.14
4,GAUCUGA,-0.519
5,UUGGGUC,1.03
6,CGGUCCA,-0.537
7,CACCGAG,-0.289
8,UACAAUG,-0.0925
9,UAGGUUG,1.68
10,CGCGAAA,-0.475
11,UUUGUGG,0.833
12,CUGUUAA,-0.781
13,CCGCCGU,-0.683
14,UUGCACG,-0.253
15,AGGAUGG,3.4
16,GUACUUC,-0.694
17,GACGCGG,1.03
18,CCUCUGA,-0.788
19,CACCAGG,0.21
20,AGCUACG,-0.213
21,ACCAGGA,1.09
22,UCAACAA,-0.373
23,GUGUCCC,-0.26

row,Sequence,RNAcompete 7-mer binding Z-score
1,GUUUCAA,-0.475
2,CAACUGG,0.0786
3,GUUAUCG,0.0313
4,CAACAUU,-0.566
5,AAACCGU,-0.602
6,GGGCUGA,1.02
7,CGUGCGG,1.24
8,ACAAUCU,-0.795
9,UUAUUAG,-0.286
10,CUGGCUA,-0.486
11,UCUAUGU,-0.61
12,ACUAAGA,-0.322
13,CCCAACC,-0.795
14,AGGGGGC,1.4
15,AUCUAUU,-0.653
16,UAUUGCA,-0.475
17,CCGAGUC,-0.817
18,AGCGUCG,0.0495
19,CCUACGC,-0.755
20,CAUAAUG,-0.384
21,CCUAGUC,-0.846
22,AACCAUU,-0.632
23,CGCAAUA,-0.46

row,Sequence,RNAcompete 7-mer binding Z-score
1,UCGUACA,-0.369
2,GGACCGU,0.0532
3,ACGAUUC,-0.551
4,AGAGAUU,-0.103
5,GACGCCG,-0.646
6,GCAGUAA,0.538
7,UGAACCA,-0.384
8,GGAAGCU,0.683
9,GAGUGCG,1.3
10,AGUGGCU,0.534
11,UUCGUUU,-0.409
12,AAAUCAC,-0.522
13,CCAAGUU,-0.715
14,AUAUUAC,-0.541
15,UAAUGAU,-0.417
16,CUGACAA,-0.533
17,CACGCCA,-0.734
18,GCAUCUU,-0.763
19,ACGGGUA,2.22
20,CUUUCCU,-0.912
21,GCCAGAC,-0.493
22,UCCGUCG,-0.511
23,GCGCAUA,-0.154

row,Sequence,RNAcompete 7-mer binding Z-score
1,GUAUCAU,-0.286
2,UGGUAUU,-0.0197
3,GUCUCCU,-0.694
4,CGAAGAC,-0.431
5,CAGCUGU,-0.624
6,CAUUUCA,-0.846
7,UUACGGU,-0.144
8,UCGAUCA,-0.515
9,CGCGAUG,-0.0306
10,ACCAGAU,-0.606
11,UCGUCUG,-0.635
12,UUCAGAC,-0.664
13,AUCCGUG,-0.723
14,GAGGGUU,2.88
15,CGCUGAG,-0.118
16,GAGUCCG,-0.253
17,UCCUGUC,-0.934
18,AGUCCCA,-0.712
19,CGUAACA,-0.3
20,CCAGAUA,-0.643
21,CUUUCGG,-0.679
22,UAUAGAU,-0.187
23,UAUAUAC,-0.471

row,Sequence,RNAcompete 7-mer binding Z-score
1,AUGUUCA,-0.752
2,CGACACC,-0.635
3,AAGCAAA,-0.0634
4,GUCUGUU,-0.548
5,UCCUUGA,-0.857
6,GACGUAG,0.691
7,AAUCAGA,0.243
8,UCAAUUA,-0.664
9,GGAGUAU,1.4
10,CGCCGCG,-0.453
11,UUCGUCC,-0.806
12,GUUAGUA,0.41
13,GCUUGAU,-0.65
14,AGUGUCA,-0.329
15,UCCUCAC,-0.814
16,GUGUGAU,0.279
17,GUAAGAC,0.319
18,UACGGAC,0.428
19,ACCAGAC,-0.606
20,CUCCGGA,-0.479
21,UUGCGCU,-0.69
22,ACCCCCA,-0.409
23,UACGGUC,-0.446

row,Sequence,RNAcompete 7-mer binding Z-score
1,CAUGAAG,0.0313
2,GACCUAG,-0.508
3,CUGACAG,-0.333
4,UAACUUC,-0.65
5,GGGGUGA,3.52
6,UGGUGUG,2.21
7,CACCGGA,0.0604
8,CGCCAAU,-0.704
9,UGUCCGC,-0.777
10,ACCACCC,-0.65
11,CGCUACC,-0.755
12,AAGGUCG,1.74
13,AACAGAU,-0.0415
14,GAUCGAU,-0.213
15,AGAGCGU,-0.169
16,CGGUUCC,-0.453
17,ACGUUAU,-0.519
18,CAGGGGA,2.8
19,CUCGCCC,-0.632
20,CCACCAC,-0.482
21,AUAGAUC,-0.107
22,UUCCACA,-0.508
23,GACUUAA,-0.592

row,Sequence,RNAcompete 7-mer binding Z-score
1,CUGAGUC,-0.548
2,GUAAGCU,0.115
3,UCAUUUU,-0.792
4,AGGCGGU,1.19
5,AUCGAGG,1.4
6,CGAUACG,-0.165
7,CGUUGUC,-0.581
8,GAGGCGA,1.56
9,GUUGAUC,-0.227
10,AAUGUUC,-0.566
11,ACCCCUC,-0.639
12,UGCGGAC,0.206
13,CCUUCUG,-0.887
14,UACUCAA,-0.734
15,UAUAACC,-0.624
16,GACCCUC,-0.999
17,AUAGGUG,2.41
18,CUGGUUU,-0.493
19,AACCCGG,-0.402
20,UCCAAUG,-0.362
21,CCAUUCG,-0.774
22,UCGAGGA,0.905
23,CGUGACG,0.0167

row,Sequence,RNAcompete 7-mer binding Z-score
1,CAUACGG,0.483
2,CGGGAGG,2.96
3,GAAAAUC,-0.307
4,UUUGCUA,-0.686
5,UGAGCAG,0.705
6,CCUAUCC,-0.967
7,GCCAGAA,-0.337
8,UGCCUCC,-0.701
9,CCACUUG,-0.81
10,GGCUAGU,-0.0962
11,ACCCCGC,-0.686
12,UAAUGAG,0.25
13,GGCGUGU,1.04
14,ACGGUUU,0.0568
15,CACCUUG,-0.632
16,UCAGAGG,0.738
17,AACGUGU,0.101
18,GAGGCCU,-0.497
19,CCGACCG,-0.566
20,CGGAGUG,1.61
21,ACCCGGC,-0.639
22,UUAACGG,0.232
23,UGCCCAU,-0.795
